Measurements from the supplement of paper PMC8728848.
The other results are listed elsewhere or left out.

Columns and labels:
Experiment in all cases: glycan array binding signal (z-score within array); higher = stronger binding
Details in all cases: glycan notation: IUPAC condensed, linker removed
[1] = target: Fuc(a1-2)[Gal(a1-3)]Gal(b1-4)GlcNAc(b1-2)Man(a1-3)[Fuc(a1-2)[Gal(a1-3)]Gal(b1-4)GlcNAc(b1-2)Man(a1-6)]Man(b1-4)GlcNAc(b1-4)[Fuc(a1-6)]GlcNAc
Outline: (§1)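 Columns mapping to the same glycan were averaged after glycan names were converted to IUPAC-condensed notation. The data come from 3228 arrays in the Consortium for Functional Glycomics database, limited to those with an available protein sequence. Binding is reported as a within-array Z-score averaged across arrays of one protein sequence and across linkers.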

[2] = target: Fuc(a1-2)[Gal(a1-3)]Gal(b1-4)GlcNAc(b1-3)GalNAc
Outline: as §1

[3] = target: Fuc(a1-2)[Gal(a1-3)]Gal(b1-4)GlcNAc(b1-3)[Fuc(a1-2)[Gal(a1-3)]Gal(b1-4)GlcNAc(b1-6)]GalNAc
Outline: as §1

[4] = target: Fuc(a1-2)[Gal(a1-3)]Gal(b1-4)GlcNAc(b1-6)GalNAc
Outline: as §1

[5] = target: Fuc(a1-2)[Gal(a1-3)]Gal(b1-4)[Fuc(a1-3)]Glc
Outline: as §1

[6] = target: Fuc(a1-2)[Gal(a1-3)]Gal(b1-4)[Fuc(a1-3)]GlcNAc
Outline: as §1

[7] = target: Fuc(a1-2)[Gal(a1-3)]Gal(b1-4)[Fuc(a1-3)]GlcNAc(b1-3)GalNAc
Outline: as §1

[8] = target: Fuc(a1-2)[Gal(a1-4)]Gal(b1-4)GlcNAc
Outline: as §1

[9] = target: Fuc(a1-2)[GalNAc(a1-3)]Gal
Outline: as §1

[10] = target: Fuc(a1-2)[GalNAc(a1-3)]Gal(b1-3)GalNAc(a1-3)[Fuc(a1-2)]Gal(b1-4)GlcNAc
Outline: as §1

[11] = target: Fuc(a1-2)[GalNAc(a1-3)]Gal(b1-3)GalNAc(b1-3)Gal(a1-4)Gal(b1-4)Glc
Outline: as §1

[12] = target: Fuc(a1-2)[GalNAc(a1-3)]Gal(b1-3)GlcNAc
Outline: as §1

[13] = target: Fuc(a1-2)[GalNAc(a1-3)]Gal(b1-3)GlcNAc(b1-2)Man(a1-3)[Fuc(a1-2)[GalNAc(a1-3)]Gal(b1-3)GlcNAc(b1-2)Man(a1-6)]Man(b1-4)GlcNAc(b1-4)GlcNAc
Outline: as §1

[14] = target: Fuc(a1-2)[GalNAc(a1-3)]Gal(b1-3)GlcNAc(b1-2)Man(a1-3)[Fuc(a1-2)[GalNAc(a1-3)]Gal(b1-3)GlcNAc(b1-2)Man(a1-6)]Man(b1-4)GlcNAc(b1-4)[Fuc(a1-6)]GlcNAc
Outline: as §1

[15] = target: Fuc(a1-2)[GalNAc(a1-3)]Gal(b1-3)GlcNAc(b1-3)GalNAc
Outline: as §1

[16] = target: Fuc(a1-2)[GalNAc(a1-3)]Gal(b1-3)GlcNAc(b1-6)GalNAc
Outline: as §1

[17] = target: Fuc(a1-2)[GalNAc(a1-3)]Gal(b1-4)Glc
Outline: as §1

[18] = target: Fuc(a1-2)[GalNAc(a1-3)]Gal(b1-4)GlcNAc
Outline: as §1

[19] = target: Fuc(a1-2)[GalNAc(a1-3)]Gal(b1-4)GlcNAc(b1-2)Man
Outline: as §1

[20] = target: Fuc(a1-2)[GalNAc(a1-3)]Gal(b1-4)GlcNAc(b1-2)Man(a1-3)[Fuc(a1-2)[GalNAc(a1-3)]Gal(b1-4)GlcNAc(b1-2)Man(a1-6)]Man(b1-4)GlcNAc(b1-4)GlcNAc
Outline: as §1

[21] = target: Fuc(a1-2)[GalNAc(a1-3)]Gal(b1-4)GlcNAc(b1-2)Man(a1-3)[Fuc(a1-2)[GalNAc(a1-3)]Gal(b1-4)GlcNAc(b1-2)Man(a1-6)]Man(b1-4)GlcNAc(b1-4)[Fuc(a1-6)]GlcNAc
Outline: as §1

[22] = target: Fuc(a1-2)[GalNAc(a1-3)]Gal(b1-4)GlcNAc(b1-3)Gal(b1-4)GlcNAc
Outline: as §1

[23] = target: Fuc(a1-2)[GalNAc(a1-3)]Gal(b1-4)GlcNAc(b1-3)Gal(b1-4)GlcNAc(b1-3)Gal(b1-4)GlcNAc
Outline: as §1

[24] = target: Fuc(a1-2)[GalNAc(a1-3)]Gal(b1-4)GlcNAc(b1-3)GalNAc
Outline: as §1

[25] = target: Fuc(a1-2)[GalNAc(a1-3)]Gal(b1-4)GlcNAc(b1-3)[Fuc(a1-2)[GalNAc(a1-3)]Gal(b1-4)GlcNAc(b1-6)]GalNAc
Outline: as §1

[26] = target: Fuc(a1-2)[GalNAc(a1-3)]Gal(b1-4)GlcNAc(b1-6)GalNAc
Outline: as §1

[27] = target: Fuc(a1-2)[GalNAc(a1-3)]Gal(b1-4)[Fuc(a1-3)]GlcNAc
Outline: as §1

[28] = target: Fuc(a1-2)[GalNAc(a1-3)]Gal(b1-4)[Fuc(a1-3)]GlcNAc(b1-3)GalNAc
Outline: as §1

[29] = target: Fuc(a1-2)[GalNAc(a1-4)]Gal(b1-4)GlcNAc
Outline: as §1

[30] = target: Fuc(a1-2)[GalNAc(b1-3)]Gal
Outline: as §1

Fuc(a1-3)GlcNAc = target: Fuc(a1-3)GlcNAc
Outline: as §1

[31] = target: Fuc(a1-3)[Gal(b1-4)]Glc6S
Outline: as §1

[32] = target: Fuc(a1-3)[Gal(b1-4)]GlcNAc
Outline: as §1

[33] = target: Fuc(a1-3)[Gal(b1-4)]GlcNAc(b1-2)Man
Outline: as §1

[34] = target: Fuc(a1-3)[Gal(b1-4)]GlcNAc(b1-2)Man(a1-3)[Fuc(a1-3)[Gal(b1-4)]GlcNAc(b1-2)Man(a1-6)]Man(b1-4)GlcNAc(b1-4)GlcNAc
Outline: as §1

[35] = target: Fuc(a1-3)[Gal(b1-4)]GlcNAc(b1-2)Man(a1-3)[Fuc(a1-3)[Gal(b1-4)]GlcNAc(b1-2)Man(a1-6)]Man(b1-4)GlcNAc(b1-4)[Fuc(a1-6)]GlcNAc
Outline: as §1

[36] = target: Fuc(a1-3)[Gal(b1-4)]GlcNAc(b1-3)Gal(b1-3)[Fuc(a1-4)]GlcNAc
Outline: as §1

[37] = target: Fuc(a1-3)[Gal(b1-4)]GlcNAc(b1-3)Gal(b1-4)[Fuc(a1-3)]GlcNAc
Outline: as §1

[38] = target: Fuc(a1-3)[Gal(b1-4)]GlcNAc(b1-3)Gal(b1-4)[Fuc(a1-3)]GlcNAc(b1-3)Gal(b1-4)[Fuc(a1-3)]GlcNAc
Outline: as §1

[39] = target: Fuc(a1-3)[Gal(b1-4)]GlcNAc(b1-3)GalNAc
Outline: as §1

[40] = target: Fuc(a1-3)[Gal(b1-4)]GlcNAc(b1-6)GalNAc
Outline: as §1

[41] = target: Fuc(a1-3)[Gal(b1-4)]GlcNAc(b1-6)[Gal(b1-3)GlcNAc(b1-3)]Gal(b1-4)Glc
Outline: as §1

[42] = target: Fuc(a1-3)[Gal(b1-4)]GlcNAc6S
Outline: as §1

[43] = target: Fuc(a1-3)[Gal3S(b1-4)]Glc
Outline: as §1

[44] = target: Fuc(a1-3)[Gal3S(b1-4)]GlcNAc
Outline: as §1

B1: PX9937D-bvu-500-26-500 (Bacteroides vulgatus) (protein)
chain: DPVSDITDLNYWKTPEQFDSFVFGLHSRFRSHSWNMFLLGEARSDVFGGIPFGGEATQGMERFPYNTLNAENPGISGFGDLYQNINQMNLFISRTLHTDVLTESARNYYLGQVYGLRAYYMYQLYRSWGDVVFTEEPSLGFEVGKLAKAATPAAEIFEQVKKDIESSLSYFGSDYTIKEKKSLWSKAATLMLKADVYLWSAHRDGGEGDARTAKNALVDIQNNISRSNLDLMDTYQGVFAYDNKGNKEIIFTIHNELFEYNLWNGNNDLFPQADYLGKFYNADGTLINTSVENNFGIMRLMVKLENFKKFLPGDTRRDVTLKDVYNKVENGKLELVGVYPHKYWGVMNGSTRVRCDDYPIYRYSDLLLMLAEAKVLLGEDPATEINRVRRRAFGDAYDASTVGFPNQEVDKRPADAVLQERLFEFMLEGKRWYDLRRFGDSYVLDYTPAEPARLLWPINQGALTNNPLLKQTVGY
[1]
  glycan array binding signal (z-score): -0.298
[2]
  glycan array binding signal (z-score): 0.162
[3]
  glycan array binding signal (z-score): 0.021
[4]
  glycan array binding signal (z-score): -0.145
[5]
  glycan array binding signal (z-score): 0.301
[6]
  glycan array binding signal (z-score): -0.096
[7]
  glycan array binding signal (z-score): 0.028
[8]
  glycan array binding signal (z-score): 0.449
[9]
  glycan array binding signal (z-score): -0.499
[10]
  glycan array binding signal (z-score): -0.504
[11]
  glycan array binding signal (z-score): -0.48
[12]
  glycan array binding signal (z-score): -0.241
[13]
  glycan array binding signal (z-score): 0.456
[14]
  glycan array binding signal (z-score): -0.045
[15]
  glycan array binding signal (z-score): -0.145
[16]
  glycan array binding signal (z-score): -0.017
[17]
  glycan array binding signal (z-score): -0.222
[18]
  glycan array binding signal (z-score): -0.267
[19]
  glycan array binding signal (z-score): -0.338
[20]
  glycan array binding signal (z-score): 1.86
[21]
  glycan array binding signal (z-score): -0.649
[22]
  glycan array binding signal (z-score): -0.254
[23]
  glycan array binding signal (z-score): 2.27
[24]
  glycan array binding signal (z-score): -0.409
[25]
  glycan array binding signal (z-score): -0.338
[26]
  glycan array binding signal (z-score): -0.257
[27]
  glycan array binding signal (z-score): -0.106
[28]
  glycan array binding signal (z-score): -0.371
[29]
  glycan array binding signal (z-score): 1.69
[30]
  glycan array binding signal (z-score): -0.447
Fuc(a1-3)GlcNAc
  glycan array binding signal (z-score): -0.105
[31]
  glycan array binding signal (z-score): 0.181
[32]
  glycan array binding signal (z-score): -0.094
[33]
  glycan array binding signal (z-score): -0.17
[34]
  glycan array binding signal (z-score): 6.27
[35]
  glycan array binding signal (z-score): 0.82
[36]
  glycan array binding signal (z-score): -0.213
[37]
  glycan array binding signal (z-score): -0.296
[38]
  glycan array binding signal (z-score): 0.139
[39]
  glycan array binding signal (z-score): -0.063
[40]
  glycan array binding signal (z-score): 0.122
[41]
  glycan array binding signal (z-score): -0.353
[42]
  glycan array binding signal (z-score): -0.212
[43]
  glycan array binding signal (z-score): -0.187
[44]
  glycan array binding signal (z-score): -0.286
